Paper PMC12292926
No constants are given. Whether binding was seen depends on the method and setting. In cells and extracts the contact can be indirect. Some binding calls cover weakened binding; strength is not graded here.

The chains behind the UniProt entries cited, without tags or fusion partners. Where a name states a change or a piece, a line headed by the entry shows the natural chain unless it says otherwise. Residues count along the entry.
UniProt Q9H4L4, residues 303-574: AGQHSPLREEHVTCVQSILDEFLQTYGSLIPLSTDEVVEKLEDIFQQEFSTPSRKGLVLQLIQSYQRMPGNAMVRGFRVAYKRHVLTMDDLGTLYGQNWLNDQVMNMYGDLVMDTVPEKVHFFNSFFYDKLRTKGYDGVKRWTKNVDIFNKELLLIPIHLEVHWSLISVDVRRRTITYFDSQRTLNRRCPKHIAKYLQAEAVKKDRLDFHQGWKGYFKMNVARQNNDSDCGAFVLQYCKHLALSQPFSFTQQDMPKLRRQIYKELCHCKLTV
UniProt Q8IZL8: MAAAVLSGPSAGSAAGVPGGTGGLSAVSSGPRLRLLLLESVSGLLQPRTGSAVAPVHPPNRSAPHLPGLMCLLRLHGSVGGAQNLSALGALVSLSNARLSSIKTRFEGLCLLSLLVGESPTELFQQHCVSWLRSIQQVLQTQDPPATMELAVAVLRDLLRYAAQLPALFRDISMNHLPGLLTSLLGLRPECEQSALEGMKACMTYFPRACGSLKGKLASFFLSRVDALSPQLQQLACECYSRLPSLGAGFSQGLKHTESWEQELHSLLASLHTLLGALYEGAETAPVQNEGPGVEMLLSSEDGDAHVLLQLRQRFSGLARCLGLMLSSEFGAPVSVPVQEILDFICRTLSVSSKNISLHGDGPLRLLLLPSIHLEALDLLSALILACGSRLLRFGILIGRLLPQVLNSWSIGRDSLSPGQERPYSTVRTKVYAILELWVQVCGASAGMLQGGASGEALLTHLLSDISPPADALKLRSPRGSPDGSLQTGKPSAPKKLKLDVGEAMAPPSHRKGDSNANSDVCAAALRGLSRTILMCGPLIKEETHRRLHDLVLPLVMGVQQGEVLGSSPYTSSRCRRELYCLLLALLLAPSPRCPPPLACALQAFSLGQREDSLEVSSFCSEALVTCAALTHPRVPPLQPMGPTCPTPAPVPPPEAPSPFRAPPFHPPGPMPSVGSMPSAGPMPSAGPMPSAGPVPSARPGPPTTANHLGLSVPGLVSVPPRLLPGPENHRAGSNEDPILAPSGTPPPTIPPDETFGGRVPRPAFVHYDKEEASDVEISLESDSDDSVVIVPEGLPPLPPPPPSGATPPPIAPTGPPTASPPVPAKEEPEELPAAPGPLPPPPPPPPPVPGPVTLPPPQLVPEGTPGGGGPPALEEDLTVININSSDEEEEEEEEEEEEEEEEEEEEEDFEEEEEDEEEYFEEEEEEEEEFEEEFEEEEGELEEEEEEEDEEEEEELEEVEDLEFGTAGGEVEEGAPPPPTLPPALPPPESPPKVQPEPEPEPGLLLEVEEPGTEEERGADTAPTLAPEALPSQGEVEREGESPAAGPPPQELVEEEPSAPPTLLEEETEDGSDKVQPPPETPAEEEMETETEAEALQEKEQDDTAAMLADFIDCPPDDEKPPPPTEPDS

Key:
[1] = target: SENP3 SUMO protease domain (residues 303 to 574), N-terminal FLAG tag (human) (UniProt Q9H4L4); experiment: co-IP; anti-FLAG M2 affinity gel; N-terminally FLAG-tagged SENP3 truncations as bait, exogenous rixosome co-transfected in HEK293FT; Western blot
[2] = target: PELP1 K826R (SUMOylation site lysine 826 to arginine) (human) (UniProt Q8IZL8); experiment: co-IP; anti-FLAG M2 affinity gel; FLAG-tagged PELP1 variants as bait, exogenous rixosome subunits co-transfected in HEK293FT; lysis in 50 mM Hepes pH 7.5, 200 mM NaCl, 5 mM MgCl2, 10% glycerol, 0.5% NP-40, 1 mM DTT, 4°C; SDS-PAGE and Western blot
[3] = target: PELP1, wild type, C-terminal FLAG tag (human) (UniProt Q8IZL8); experiment: as above

Measured: binding

B1: TEX10, co-expressed rixosome subunit found with PELP1 or SENP3 baits (protein, UniProt Q9NXF1 1-929)
chain: MTKKRKRQHDFQKVKLKVGKKKPKLQNATPTNFKTKTIHLPEQLKEDGTLPTNNRKLNIKDLLSQMHHYNAGVKQSALLGLKDLLSQYPFIIDAHLSNILSEVTAVFTDKDANVRLAAVQLLQFLAPKIRAEQISPFFPLVSAHLSSAMTHITEGIQEDSLKVLDILLEQYPALITGRSSILLKNFVELISHQQLSKGLINRDRSQSWILSVNPNRRLTSQQWRLKVLVRLSKFLQALADGSSRLRESEGLQEQKENPHATSNSIFINWKEHANDQQHIQVYENGGSQPNVSSQFRLRYLVGGLSGVDEGLSSTENLKGFIEIIIPLLIECWVEAVPPQLATPVGNGIEREPLQVMQQVLNIISLLWKLSKQQDETHKLESWLRKNYLIDFKHHFMSRFPYVLKEITKHKRKEPNKSIKHCTVLSNNIDHLLLNLTLSDIMVSLANASTLQKDCSWIEMIRKFVTETLEDGSRLNSKQLNRLLGVSWRLMQIQPNREDTETLIKAVYTLYQQRGLILPVRTLLLKFFSKIYQTEELRSCRFRYRSKVLSRWLAGLPLQLAHLGSRNPELSTQLIDIIHTAAARANKELLKSLQATALRIYDPQEGAVVVLPADSQQRLVQLVYFLPSLPADLLSRLSRCCIMGRLSSSLAAMLIGILHMRSSFSGWKYSAKDWLMSDVDYFSFLFSTLTGFSKEELTWLQSLRGVPHVIQTQLSPVLLYLTDLDQFLHHWDVTEAVFHSLLVIPARSQNFDILQSAISKHLVGLTVIPDSTAGCVFGVICKLLDHTCVVSETLLPFLASCCYSLLYFLLTIEKGEAEHLRKRDKLWGVCVSILALLPRVLRLMLQSLRVNRVGPEELPVVGQLLRLLLQHAPLRTHMLTNAILVQQIIKNITTLKSGSVQEQWLTDLHYCFNVYITGHPQGPSALATVY
binds: all assays above
